In all, about 410,000 compounds went through this assay and about 1,200 (0.29%) were called active. This list was built around the results that the source calls inconclusive (neither active nor inactive); the mix of calls is not that of the screen. Calls come from the whole dose curve; as a rule, active = well fitted activation curve with a large enough effect; inconclusive = small, poorly fitted or top-dose-only effect; inactive = flat fitted curve, though single readings scatter. Where the call is inconclusive, the potency comes from a doubtful curve fit.
test: qHTS of Nrf2 Activators; conditions: AREc32 ARE-luciferase reporter (MCF7-derived line), luminescence, 24 h; activation: at 46.1 µM (top of the series); note: nearly all actives have a fitted effect of over 65% in size
In short: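 Nrf2 activation is followed as ARE-luciferase induction in the AREc32 line after one day of compound treatment; luminescence is read with Steady-Glo.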
Potency is the fitted concentration of half-maximal effect; tags give direction and shape of the fitted curve.

Potency, active:
COc1ccc(Cl)cc1C=CC=Nc1ccccc1O 10 µM
COC(=O)c1scc(C)c1NC(=O)C(Cl)c1ccccc1 (stereo not given) 12.6 µM
N#CC1=C(N)Oc2c(ccc3ccccc23)C1c1ccsc1 (stereo not given) 8.91 µM

Potency, inconclusive:
Cc1cc2nc(-c3cccc(Cl)c3)c(CC3CCCCC3)n2c(C)c1Br 17.8 µM [activator, single point]
Cc1cc(C)c2c(NC(=O)CCl)nn(C)c2n1 8.91 µM [activator, partial curve]
OC(c1cccc(Cl)c1)c1nc(-c2ccoc2)cs1 (stereo not given) 22.4 µM [activator, single point]
Cc1cc(C)c(S(C)(=O)=O)c(S(=O)(=O)c2ccc(Cl)cc2)n1 22.4 µM [activator, single point]
CC(C)Cc1cc(-c2ccco2)c(C#N)c(N)n1 3.16 µM [activator, full curve]
O=[N+]([O-])c1ccccc1S(=O)c1ccccc1[N+](=O)[O-] 7.08 µM [activator, partial curve]
COc1ccc(CNC(=O)C2CCN(c3nnc(-n4c(C)ccc4C)s3)CC2)c(OC)c1 35.5 µM [activator, partial curve, poor fit]
CCOc1ccc(NC(=O)CCC(=O)N/N=C/c2ccc([N+](=O)[O-])s2)cc1 10 µM [activator, partial curve, poor fit]
CCOC(=O)C1=C(C)OC(N)=C(C#N)C1c1cc2c(cc1Br)OCO2 (stereo not given) 17.8 µM [activator, single point]
O=C(CN1C(=O)/C(=C/c2ccccc2F)Sc2ccccc21)NCCCN1CCOCC1 14.1 µM [activator, partial curve, poor fit]
Cc1cccc(NC(=O)c2cc([N+](=O)[O-])ccc2Cl)c1O 15.8 µM [activator, partial curve, poor fit]
CC1CCN(CCCNC(=O)c2cc3c(=O)n(C)c4ccccc4c3n2C)CC1 11.2 µM [activator, partial curve]
CCOc1ccccc1CNC(=O)c1ccc(-n2c(C)cc3c2CCC(C)C3)cc1 (stereo not given) 35.5 µM [activator, single point]
CCCCCCOC(=O)c1ccccc1NC(=O)/C=C/C(=O)O 35.5 µM [activator, single point]
N#Cc1ccc(-c2ccco2)nc1SCc1ccccc1 3.55 µM [activator, full curve]
COc1ccc2nc3cc(Cl)ccc3c(Nc3ccc(O)c(CN4CCN(C)CC4)c3)c2c1 22.4 µM [activator, single point]
COC(=O)c1ccc(CCc2cc(O)ccc2O)cc1 25.1 µM [activator, single point]
CC(C)(C)c1ccc(C(=O)N2[C@H](COCc3ccccc3)C=CS2(=O)=O)cc1 22.4 µM [activator, single point]
NC(=O)c1ccc(-n2nnnc2Oc2ccccc2C(=O)N2CCOCC2)cc1 11.2 µM [activator, partial curve, poor fit]
O=C(CSc1nnc(NC(=O)c2cccc(Cl)c2)s1)NCC1CCCO1 (stereo not given) 15.8 µM [activator, partial curve, poor fit]
c1csc(CSc2nnc3sc4ccccc4n23)c1 15.8 µM [activator, partial curve, poor fit]
Cc1cccc(NC(=O)/C(C#N)=C/c2ccco2)c1 14.1 µM [activator, single point]
C(=C/c1nccc2c1[nH]c1ccccc12)/c1ccc2c(c1)OCO2 5.01 µM [activator, full curve]
Cn1c(/N=C(\N)c2ccccc2)nc2ccccc21 7.94 µM [activator, partial curve]
CN(C)CCC(=O)c1ccc(F)cc1 35.5 µM [activator, single point]
N#CCCCN1C(=O)C(=C(C#N)C#N)c2ccccc21 15.8 µM [activator, single point]
CC(=O)c1ccc(NC(=O)c2cc(Cl)sc2Cl)cc1 15.8 µM [activator, single point]
Cc1ccc(-c2ccccc2)n1-c1cccc(C(=O)O)c1 28.2 µM [activator, single point]
O=C(CCN1CCCC1)c1cccs1 22.4 µM [activator, single point]
Cc1cc2nc(-c3ccco3)c(Cc3ccccc3C(F)(F)F)n2c(C)c1Br 35.5 µM [activator, single point]

Potency, inactive:
O=C(NC1CC(=O)N(c2cccc(F)c2)C1)c1ccc2c(c1)OCO2 (stereo not given)
COc1ccc(NC(=O)c2ccc3c(=O)n4c(nc3c2)CCCCC4)cc1
COC(=O)c1c(-c2ccc(F)cc2)csc1NC(=O)C1CCCO1 (stereo not given)
Oc1ccccc1N1CCN(CC(O)COC2CCCc3ccccc32)CC1 (stereo not given)
COc1ccc2[nH]c(=O)c(CN(Cc3ccccc3)C(=S)NCC3CCCO3)cc2c1 (stereo not given)
O=C(O)Cc1sc(Nc2cccc3ccccc23)nc1-c1ccc(Cl)cc1
Oc1ccc2ccccc2c1C=Nc1ccccc1Br
CCCSC1=N/C(=C\c2ccc([N+](=O)[O-])o2)C(=O)S1
CN(C(=O)COC(=O)c1ccc(-c2ccc(O)cc2)cc1)C1CCS(=O)(=O)C1 (stereo not given)
O=C(CN1CCN(c2ccc(O)cc2)CC1)Nc1ccc(S(=O)(=O)N2CCCC2)cc1
CCOc1ccccc1NS(=O)(=O)c1cc2[nH]c(=O)c(=O)[nH]c2cc1C
CCc1cccc(NC(=O)c2cc3c(=O)oc4ccc(C)cc4c3s2)c1

— PubChem BioAssay AID624171 (National Center for Advancing Translational Sciences (NCATS), 2012)
